From paper PMC6639074
These are yes or no findings as the source states them, for the method shown. Some results given as binding are weak or reduced against the parent protein; the word gives no strength.

Chains of the proteins cited; added tags and fusions are not shown. Lines headed by an entry give the natural chain unless they say otherwise; changes in a name come on top.
UniProt P61019: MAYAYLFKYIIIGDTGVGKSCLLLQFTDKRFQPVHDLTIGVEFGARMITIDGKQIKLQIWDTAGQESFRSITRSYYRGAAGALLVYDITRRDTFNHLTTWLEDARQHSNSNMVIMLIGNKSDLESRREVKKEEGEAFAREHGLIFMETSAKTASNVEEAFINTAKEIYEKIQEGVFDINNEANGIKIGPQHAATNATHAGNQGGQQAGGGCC
UniProt Q5TH69: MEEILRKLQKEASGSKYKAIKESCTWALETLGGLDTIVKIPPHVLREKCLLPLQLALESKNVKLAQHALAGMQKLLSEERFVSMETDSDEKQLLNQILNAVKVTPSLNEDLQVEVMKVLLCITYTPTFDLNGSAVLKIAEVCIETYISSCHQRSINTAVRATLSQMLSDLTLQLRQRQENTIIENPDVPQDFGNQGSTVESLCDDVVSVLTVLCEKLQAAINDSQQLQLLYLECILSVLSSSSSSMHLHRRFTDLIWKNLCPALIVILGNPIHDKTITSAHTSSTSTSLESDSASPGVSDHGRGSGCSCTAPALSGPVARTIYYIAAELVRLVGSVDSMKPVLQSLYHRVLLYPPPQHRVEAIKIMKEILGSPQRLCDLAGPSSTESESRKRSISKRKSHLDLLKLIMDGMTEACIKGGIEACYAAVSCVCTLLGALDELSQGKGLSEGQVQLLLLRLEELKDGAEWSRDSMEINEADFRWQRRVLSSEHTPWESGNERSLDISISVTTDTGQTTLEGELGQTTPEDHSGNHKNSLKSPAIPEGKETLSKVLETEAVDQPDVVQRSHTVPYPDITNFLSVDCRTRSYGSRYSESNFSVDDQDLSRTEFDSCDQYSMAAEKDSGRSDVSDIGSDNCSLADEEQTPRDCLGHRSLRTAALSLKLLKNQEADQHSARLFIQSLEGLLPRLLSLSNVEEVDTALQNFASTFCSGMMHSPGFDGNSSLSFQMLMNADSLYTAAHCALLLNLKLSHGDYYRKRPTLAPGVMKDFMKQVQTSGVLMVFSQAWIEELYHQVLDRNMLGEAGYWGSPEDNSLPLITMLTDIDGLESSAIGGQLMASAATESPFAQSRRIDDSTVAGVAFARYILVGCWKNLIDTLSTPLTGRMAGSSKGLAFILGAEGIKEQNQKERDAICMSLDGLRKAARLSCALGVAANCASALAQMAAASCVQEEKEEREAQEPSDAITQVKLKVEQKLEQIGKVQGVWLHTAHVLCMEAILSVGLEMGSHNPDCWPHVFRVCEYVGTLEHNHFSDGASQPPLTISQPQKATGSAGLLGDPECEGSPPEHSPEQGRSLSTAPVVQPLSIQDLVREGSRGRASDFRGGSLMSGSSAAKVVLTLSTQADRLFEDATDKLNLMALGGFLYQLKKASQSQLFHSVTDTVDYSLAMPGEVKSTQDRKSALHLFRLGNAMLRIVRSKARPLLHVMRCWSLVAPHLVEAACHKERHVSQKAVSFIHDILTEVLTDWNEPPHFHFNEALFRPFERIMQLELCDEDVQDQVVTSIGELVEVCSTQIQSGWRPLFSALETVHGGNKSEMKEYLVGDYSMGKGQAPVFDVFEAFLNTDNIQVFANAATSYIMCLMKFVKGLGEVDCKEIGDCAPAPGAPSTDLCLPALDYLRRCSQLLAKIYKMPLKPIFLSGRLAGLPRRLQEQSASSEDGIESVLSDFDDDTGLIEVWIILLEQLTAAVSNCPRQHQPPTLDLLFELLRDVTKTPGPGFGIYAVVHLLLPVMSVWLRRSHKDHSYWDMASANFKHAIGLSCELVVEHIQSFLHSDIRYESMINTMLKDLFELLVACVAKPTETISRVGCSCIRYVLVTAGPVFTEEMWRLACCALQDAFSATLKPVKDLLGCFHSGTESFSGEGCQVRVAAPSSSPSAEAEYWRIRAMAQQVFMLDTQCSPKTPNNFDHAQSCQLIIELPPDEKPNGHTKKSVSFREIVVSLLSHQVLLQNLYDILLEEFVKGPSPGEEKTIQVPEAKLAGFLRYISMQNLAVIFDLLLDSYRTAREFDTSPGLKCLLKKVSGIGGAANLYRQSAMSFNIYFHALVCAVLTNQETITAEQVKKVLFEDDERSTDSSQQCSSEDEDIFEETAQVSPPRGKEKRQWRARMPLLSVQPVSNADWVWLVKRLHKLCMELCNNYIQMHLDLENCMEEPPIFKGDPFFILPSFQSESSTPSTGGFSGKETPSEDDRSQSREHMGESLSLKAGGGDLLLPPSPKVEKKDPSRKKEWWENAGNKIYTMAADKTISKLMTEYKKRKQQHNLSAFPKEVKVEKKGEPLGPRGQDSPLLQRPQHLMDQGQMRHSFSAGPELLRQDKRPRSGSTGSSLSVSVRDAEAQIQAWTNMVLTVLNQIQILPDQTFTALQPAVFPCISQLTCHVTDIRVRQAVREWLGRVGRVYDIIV

Biological target: Rab2A(Q65L)-BirA*-HA-MAO (human) (UniProt P61019)
Assay: relocation to mitochondria (confocal microscopy); tagged protein co-expressed in cells (MEFs, HeLa) with the mitochondrial GTPase-BirA* chimera; relocation of the tagged protein to mitochondria

Substance: GFP-ARFGEF3 (from UniProt Q5TH69 1-2177)
- binding: binds
